Article PMC6919601, “Identification of Plasmodium dipeptidyl aminopeptidase allosteric inhibitors by high throughput screening” (PLoS ONE, 2019)
Screen size: about 110,000 compounds; about 230 (0.21%) showed an effect of 50% or more. The list shows a part of the results.
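Further: 30 min substrate incubation versus DMSO and 10 µM JCP410 controls.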

The compounds below were run against DPAP1 (Plasmodium falciparum, UniProt Q8IIJ9) (assay: primary screen, percent inhibition; read by cleavage of a fluorogenic dipeptide substrate; higher = more effect of the substance).
Chain of DPAP1 (Q8IIJ9 whole entry, looked up): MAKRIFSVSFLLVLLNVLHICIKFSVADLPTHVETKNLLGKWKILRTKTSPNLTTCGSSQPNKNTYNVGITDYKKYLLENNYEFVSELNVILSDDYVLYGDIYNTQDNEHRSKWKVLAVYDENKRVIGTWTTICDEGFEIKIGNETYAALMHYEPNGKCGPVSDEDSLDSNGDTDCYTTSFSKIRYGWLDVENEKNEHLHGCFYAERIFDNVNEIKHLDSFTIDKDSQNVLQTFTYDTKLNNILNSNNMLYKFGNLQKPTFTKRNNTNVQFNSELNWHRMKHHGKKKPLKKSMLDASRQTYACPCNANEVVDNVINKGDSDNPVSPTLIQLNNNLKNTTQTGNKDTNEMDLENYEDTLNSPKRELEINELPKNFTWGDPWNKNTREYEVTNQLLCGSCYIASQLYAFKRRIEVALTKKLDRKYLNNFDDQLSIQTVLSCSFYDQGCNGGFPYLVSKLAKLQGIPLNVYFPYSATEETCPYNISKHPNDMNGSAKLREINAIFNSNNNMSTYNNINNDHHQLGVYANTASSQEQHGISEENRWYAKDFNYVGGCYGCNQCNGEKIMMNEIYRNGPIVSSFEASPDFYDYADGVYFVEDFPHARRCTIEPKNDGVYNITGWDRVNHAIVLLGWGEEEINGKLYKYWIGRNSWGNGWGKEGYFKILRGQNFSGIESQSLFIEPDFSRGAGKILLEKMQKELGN
Design: species or system P. falciparum D10 trophozoite lysates; single well
For O=C(CCc1nc(-c2ccc(Cl)cc2)no1)Nc1cccnc1, the “% Inhibition @ 10 uM” value was 0.366%.
In the case of O=C1CCC(=O)N1CCOP1(=O)COc2ccccc2OC1, the “% Inhibition @ 10 uM” value is reported as 2.31%.
For O=P(O)(O)Oc1ccccc1P(=O)(c1ccccc1)c1ccccc1, the “% Inhibition @ 10 uM” value was -0.178%.
O=C(Nc1cccnc1)c1cc(-c2ccccc2O)on1 was tested, and the “% Inhibition @ 10 uM” value was -3.12%.
In the case of CCOc1ccc(C2C(C#N)=C(N)Oc3[nH]nc(-c4ccccc4)c32)c(OCC)c1 (stereo not shown), the “% Inhibition @ 10 uM” value is reported as 7.1%.
CCCCN(C)C(=O)C1CCN(c2nnc(C)c3c(C)n(-c4ccc(C)cc4)nc23)CC1 was tested, and the “% Inhibition @ 10 uM” value was 8%.
For COc1ccc(C2SCC(=O)N2CCN2CCCCC2)cc1 (stereo not shown), the “% Inhibition @ 10 uM” value was -1.3%.
For COc1cc(CN2CCOCC2)ccc1O, the “% Inhibition @ 10 uM” value was 1.62%.
CCOc1cccc(C2NC(=O)NC(C)=C2C(=O)OCC(C)C)c1 (stereo not shown) was tested, and the “% Inhibition @ 10 uM” value was 15.8%.
CC1(C)N=C(c2ccc(Cl)cc2)C(=S)N1 was tested, and the “% Inhibition @ 10 uM” value was 3.5%.
For COc1ccc(-c2noc(C34CC5CC(CC(C5)C3)C4)n2)cc1, the “% Inhibition @ 10 uM” value was -3.21%.
CCN1C(=O)N/C(=C/c2ccc(-c3ccccc3)o2)C1=O was tested, and the “% Inhibition @ 10 uM” value was -4.21%.
Nc1c(C(=O)Nc2ccc(F)cc2)sc2nc(-c3ccc4c(c3)OCO4)ccc12 was tested, and the “% Inhibition @ 10 uM” value was -1.57%.
With CC1(C)CC(O)=C(C(=S)Nc2ccccc2)/C(=N/CCN2CCOCC2)C1 the “% Inhibition @ 10 uM” value was 4.67%.
C=CCN(CC=C)C(=O)Nc1ccccc1 was tested, and the “% Inhibition @ 10 uM” value was 6.18%.
In the case of CCOC(=O)N1CCN(C(=O)c2nn(C)c3c2COc2ccccc2-3)CC1, the “% Inhibition @ 10 uM” value is reported as 3.3%.
In the case of CC(C)C[C@H](NC(=O)c1ccc(Br)o1)C(=O)NCC#N, the “% Inhibition @ 10 uM” value is reported as -4.72%.
With Cn1nccc1C(=O)Nc1ccc(Cl)cc1Cl the “% Inhibition @ 10 uM” value was 0.962%.
For Cc1nc(Nc2ccc(Cl)c(Cl)c2)nc(Nc2ccc(Cl)c(Cl)c2)c1[N+](=O)[O-], the “% Inhibition @ 10 uM” value was -1.05%.
With Cc1ccccc1C(=O)NCC(=O)c1ccccc1 the “% Inhibition @ 10 uM” value was 1.27%.
With COc1ccc(O)c(C2=NN3C(C2)c2cccc(OC)c2OC3c2ccccc2C)c1 (stereo not shown) the “% Inhibition @ 10 uM” value was -5.36%.
O=C(CCc1nc2ccccc2[nH]1)NCc1ccc(F)cc1Cl was tested, and the “% Inhibition @ 10 uM” value was -4.03%.
For O=C(c1ccc2nc(-c3cccs3)c(-c3cccs3)nc2c1)N1CCC2(CC1)OCCO2, the “% Inhibition @ 10 uM” value was 4.22%.
In the case of COc1cc(OC)c(OC)cc1CN1CCN(Cc2ccc(SC)cc2)CC1, the “% Inhibition @ 10 uM” value is reported as -2.16%.
With O=C(NCc1ccc(Cl)cc1Cl)C(=O)NCc1ccc(Cl)cc1Cl the “% Inhibition @ 10 uM” value was -4.01%.
With CCN(CC)C(=O)CSc1nc(O)cc(=O)n1C the “% Inhibition @ 10 uM” value was -1.64%.
With CCCCOc1ccc(C(C)NC(=O)C2CCC(CNS(=O)(=O)c3ccccc3)CC2)cc1 (stereo not shown) the “% Inhibition @ 10 uM” value was 0.718%.
Oc1oc(-c2cccc3ccccc23)nc1/C=N/c1cccnc1Cl was tested, and the “% Inhibition @ 10 uM” value was -3.26%.
O=C1CCCc2c1[nH]c1ccc(CN3CCCCC3)cc21 was tested, and the “% Inhibition @ 10 uM” value was 5.03%.
For Clc1ccccc1CNCc1ccc(Br)cc1, the “% Inhibition @ 10 uM” value was 2.38%.
O=C1c2cccc3c2N(CCC3)C(=O)C1(F)c1ccccc1 (stereo not shown) was tested, and the “% Inhibition @ 10 uM” value was -2.88%.
With O=C(Nc1ccc(Cl)cc1)NC(c1ccccc1)c1ccccc1 the “% Inhibition @ 10 uM” value was 1.44%.
O=C1Nc2c(c(=O)[nH]c(=O)n2Cc2ccccc2)C1(Nc1ncccn1)C(F)(F)F (stereo not shown) was tested, and the “% Inhibition @ 10 uM” value was 3.66%.
In the case of O=C(NCc1ccccc1Cl)c1cc2c(s1)-c1ccccc1OC2, the “% Inhibition @ 10 uM” value is reported as -8.58%.
In the case of NCCNC(=O)c1c(O)oc2ccccc2c1=O, the “% Inhibition @ 10 uM” value is reported as 0.00178%.
In the case of Cc1nn(Cc2ccc(C(=O)Nc3ccc(Br)c4cccnc34)o2)c(C)c1Cl, the “% Inhibition @ 10 uM” value is reported as -1.08%.
In the case of COc1cc(/C=C2\C(=N)N3N=C(S(C)(=O)=O)SC3=NC2=O)ccc1OCc1ccccc1F, the “% Inhibition @ 10 uM” value is reported as -3.39%.
With Cc1cc(Cl)ccc1N(CC(=O)Nc1ccc2ccccc2c1)S(C)(=O)=O the “% Inhibition @ 10 uM” value was -2.88%.
For O=C(c1ccco1)N1CCN(c2ncnc3c2nc2n3CCCCC2)CC1, the “% Inhibition @ 10 uM” value was 2.75%.
With CC/N=C(/Nc1cc(-c2ccc(OC)cc2OC)[nH]n1)SC the “% Inhibition @ 10 uM” value was -2.28%.
For O=C(NCCc1ccc(Cl)cc1)c1c(O)nc2c(c1O)CCCC2, the “% Inhibition @ 10 uM” value was 2.8%.
For CC(C(=O)NCCCc1ccccc1)n1ccc2cc(S(=O)(=O)N3CCCC3)ccc21 (stereo not shown), the “% Inhibition @ 10 uM” value was -7.13%.
For CSc1ccc2nc(N3CCN(c4ccccc4F)CC3)cc(C)c2c1, the “% Inhibition @ 10 uM” value was -5.16%.
For NC(=O)COc1ccc(-c2noc(/C=C/c3ccccc3)n2)cc1, the “% Inhibition @ 10 uM” value was -4%.
In the case of COc1cc(OC)cc(C(=O)Nc2ccccc2C(N)=O)c1, the “% Inhibition @ 10 uM” value is reported as 4.11%.
CC(C)C[C@H](NC(C(=O)N1CCOCC1)c1ccc(-c2ccc(S(C)(=O)=O)cc2)cc1)C(=O)NCC#N (stereo partly shown) was tested, and the “% Inhibition @ 10 uM” value was -4.72%.
COc1ccc(C2=NN(c3cc(Cl)ccc3Cl)C(c3ccc(F)cc3)C2)cc1 (stereo not shown) was tested, and the “% Inhibition @ 10 uM” value was 2.78%.
Cc1cccn2c(=O)c(/C=C(\C#N)C(=O)NCCCOC(C)C)c(Oc3ccc(Cl)cc3)nc12 was tested, and the “% Inhibition @ 10 uM” value was 5.21%.
COc1ccc(C(=O)OCCN2CCN(c3ncc(C(F)(F)F)cc3Cl)CC2)cc1OC was tested, and the “% Inhibition @ 10 uM” value was -2.28%.
Cn1c(=O)c2c(nc(CN3CCCCC3)n2Cc2cccc(Cl)c2)n(C)c1=O was tested, and the “% Inhibition @ 10 uM” value was 1.02%.
O=C(Nc1nc2nc(-c3ccccc3)cc(O)n2n1)c1cccnc1 was tested, and the “% Inhibition @ 10 uM” value was -4.91%.
For CCCCN1C(=O)C(NC(=O)c2ccccc2)(C(F)(F)F)C2=C1CC(C)(C)CC2=O (stereo not shown), the “% Inhibition @ 10 uM” value was 1.02%.
With Cc1ccc(OCC(=O)Nc2ccccc2)c(C)c1 the “% Inhibition @ 10 uM” value was 78%.
CC1=CCC2C(=O)N(c3cccc(Cl)c3)C(=O)C2C1 (stereo not shown) was tested, and the “% Inhibition @ 10 uM” value was 0.313%.
With CCc1ccc(Oc2nc3ccccn3c(=O)c2/C=C(\C#N)C(=O)NCCOC)cc1 the “% Inhibition @ 10 uM” value was -0.828%.
Cc1cc(/C=C2/NC(=O)N(Cc3ccccc3F)C2=O)c(C)n1-c1cccnc1 was tested, and the “% Inhibition @ 10 uM” value was -4.56%.
With Clc1nc(N2CCc3ccccc3C2)nc(N2CCc3ccccc3C2)n1 the “% Inhibition @ 10 uM” value was -9.24%.
With Nc1nonc1-n1nnc(C(=O)O)c1CSc1nc2ccccc2[nH]1 the “% Inhibition @ 10 uM” value was 1.62%.
With CC(C)(C)c1ccc(C(=O)N2CCN(c3ccc(F)cc3)CC2)cc1 the “% Inhibition @ 10 uM” value was 1.05%.
O=S(=O)(c1ccc(-c2cc(C(F)(F)F)no2)s1)N1CCCN(Cc2ccc(F)cc2)C1 was tested, and the “% Inhibition @ 10 uM” value was -2.86%.
With O=C(O)c1ccc(CN2CCN(c3cccc(Cl)c3)CC2)cc1 the “% Inhibition @ 10 uM” value was -6.21%.
For O=c1oc2c(O)cccc2cc1-c1nc2ccccc2[nH]1, the “% Inhibition @ 10 uM” value was -2.41%.
CCN(CC)c1ccc(Nc2nc(-c3ccccn3)cs2)cc1 was tested, and the “% Inhibition @ 10 uM” value was -6.22%.
With Cc1ccc(C)c(NS(=O)(=O)c2c(C(C)C)cc(C(C)C)cc2C(C)C)c1 the “% Inhibition @ 10 uM” value was -2.35%.
With Cc1ccc(S(=O)(=O)N(C)c2ccc(C(=O)N3CCC(C)CC3)cc2)cc1 the “% Inhibition @ 10 uM” value was -6.38%.
In the case of COc1ccc2nc(NC(=O)c3cccnc3O)sc2c1, the “% Inhibition @ 10 uM” value is reported as 0.163%.
CCN1CCN(Cc2ccc(OC)c(C)c2)CC1 was tested, and the “% Inhibition @ 10 uM” value was -3.56%.
With N#CC1=C(N)N(c2ccc(S(N)(=O)=O)cc2)C2=C(CCC2)C1(C(F)(F)F)C(F)(F)F the “% Inhibition @ 10 uM” value was 0.803%.
For c1ccc(N2CCN(Cc3csc4c3CCCC4)CC2)nc1, the “% Inhibition @ 10 uM” value was 3.36%.
For Clc1cccc(CN2CCN(c3ccccc3)CC2)c1, the “% Inhibition @ 10 uM” value was -1.92%.
CC(C)NC(=O)C1CCC(=O)N1Cc1ccccc1Cl (stereo not shown) was tested, and the “% Inhibition @ 10 uM” value was -1.79%.
COc1ccc(/C=C2/SC(Nc3ccc(O)cc3)=NC2=O)cc1 was tested, and the “% Inhibition @ 10 uM” value was -0.865%.
With NC(=O)Cc1ccc(OCC(=O)Nc2ccccc2F)cc1 the “% Inhibition @ 10 uM” value was -4.52%.
With CCCNC(=O)Cn1c(SCc2ccccc2C)nc2ccncc21 the “% Inhibition @ 10 uM” value was -2.37%.
With O=C1c2ccccc2C(=O)N1c1c(F)c(F)c(C(F)(F)F)c(F)c1F the “% Inhibition @ 10 uM” value was 1.8%.
In the case of Cc1nc2ccc(S(=O)(=O)NC(C(=O)NCc3ccco3)C(C)C)cc2s1 (stereo not shown), the “% Inhibition @ 10 uM” value is reported as 1.62%.
With CCNC(=O)C(Sc1ccccc1)c1ccccc1 (stereo not shown) the “% Inhibition @ 10 uM” value was -2.87%.
With Cc1ccc(N2CCN(S(=O)(=O)N(C)C)CC2)cc1C the “% Inhibition @ 10 uM” value was -2.28%.
In the case of Cc1ccc(CSc2nc3ccc(C(=O)NCCCOC(C)C)cc3n2C)cc1, the “% Inhibition @ 10 uM” value is reported as -2.88%.
For O=C(O)c1cc2cc([N+](=O)[O-])ccc2cc1O, the “% Inhibition @ 10 uM” value was -9.98%.
With O=C1OC(c2cccc3ccccc23)=N/C1=C\c1coc2ccccc2c1=O the “% Inhibition @ 10 uM” value was 9.08%.
COc1ccc(C2C(C#N)=C(N)OC3=C2C(=O)CC(C)(C)C3)cc1COc1ccc(F)cc1F (stereo not shown) was tested, and the “% Inhibition @ 10 uM” value was 5.66%.
For O=C(NCCc1ccccc1Cl)c1cnn2c(C(F)F)cc(-c3ccccc3)nc12, the “% Inhibition @ 10 uM” value was 4.08%.
In the case of COCCCN1C(=O)S/C(=C/c2ccc(O)c(OC)c2)C1=O, the “% Inhibition @ 10 uM” value is reported as -1.04%.
For CC1=CC2=NC(=O)/C(=C\c3cccn3CCCOc3c(C)cccc3C)C(=N)N2O1, the “% Inhibition @ 10 uM” value was -5.1%.
In the case of CCOC(=O)c1c(NC(C)=O)sc2c1CCc1ccccc1-2, the “% Inhibition @ 10 uM” value is reported as -2.15%.
With COc1ccccc1C1CC(=O)NC(SC)=C1C#N (stereo not shown) the “% Inhibition @ 10 uM” value was -3.19%.
With NC(CC(=O)NC(c1ccccc1)(c1ccccc1)c1ccccc1)C(=O)O (stereo not shown) the “% Inhibition @ 10 uM” value was 0.343%.
For CC(C)(C)OC(=O)N1CCC(c2c(C(=O)O)cnn2-c2ccccc2Cl)CC1, the “% Inhibition @ 10 uM” value was 0.446%.
In the case of Cc1cc(OCc2noc(-c3ccc4c(c3)OCO4)n2)ccc1Cl, the “% Inhibition @ 10 uM” value is reported as -8.39%.
In the case of Cc1ccc(Cn2ccc(NC(=O)c3cc(-c4ccc5c(c4)OCO5)on3)n2)cc1, the “% Inhibition @ 10 uM” value is reported as 0.628%.
In the case of Cc1nnc2c(N3CCN(Cc4ccccc4)CC3)nc3ccccc3n12, the “% Inhibition @ 10 uM” value is reported as 6.58%.
CNC(=O)c1nnc(-c2ccc3c(c2)OCO3)o1 was tested, and the “% Inhibition @ 10 uM” value was 1.79%.
Cc1cc(NCCO)nc(-c2ccc(Br)cc2)n1 was tested, and the “% Inhibition @ 10 uM” value was 0.247%.
For Cc1ccc2c(c1)c1cccc3c1n2CCN3CCC(N)=O, the “% Inhibition @ 10 uM” value was 8.22%.
With Cc1ccc2nc(-c3ccc(NC(=O)C(C)C)cc3)sc2c1 the “% Inhibition @ 10 uM” value was -1.62%.
In the case of Cc1ccc(CN(Cc2ccco2)C(=S)NCC(=O)NC(C)c2ccccc2)cc1 (stereo not shown), the “% Inhibition @ 10 uM” value is reported as 7.47%.
For OC(c1ccc(Cl)cc1)C(c1ccccc1)N1CCCCC1 (stereo not shown), the “% Inhibition @ 10 uM” value was -5.59%.
With Cc1[nH]c2ccccc2c1CCNCc1ccc(F)cc1F the “% Inhibition @ 10 uM” value was -2.45%.
With Cc1nn(C)cc1NC(=O)c1cc2n(n1)C(C(F)(F)F)CC(c1ccco1)N2 (stereo not shown) the “% Inhibition @ 10 uM” value was 1.72%.
